Laboratory results taken from PubChem BioAssay AID2147 (National Center for Advancing Translational Sciences (NCATS), 2009).
The campaign covered roughly 230,000 compounds. About 3,600 (1.6%) were called active. The shares of active, inactive and inconclusive entries below differ from those in the screen. The call rests on the fitted dose curve; in most records, active means well fitted inhibition curve with a large enough effect (not every such curve was filed as active); inconclusive means small, poorly fitted or top-dose-only effect, or another doubt; inactive means no such curve, though single readings can be large or run the other way. Potencies of inconclusive entries are doubtful fits and often do not repeat.

Target: Lysine-specific demethylase 4E (Homo sapiens) (UniProt B2RXH2)
Sequence of UniProt B2RXH2 (B2RXH2 whole entry, looked up, the tested form may be a part): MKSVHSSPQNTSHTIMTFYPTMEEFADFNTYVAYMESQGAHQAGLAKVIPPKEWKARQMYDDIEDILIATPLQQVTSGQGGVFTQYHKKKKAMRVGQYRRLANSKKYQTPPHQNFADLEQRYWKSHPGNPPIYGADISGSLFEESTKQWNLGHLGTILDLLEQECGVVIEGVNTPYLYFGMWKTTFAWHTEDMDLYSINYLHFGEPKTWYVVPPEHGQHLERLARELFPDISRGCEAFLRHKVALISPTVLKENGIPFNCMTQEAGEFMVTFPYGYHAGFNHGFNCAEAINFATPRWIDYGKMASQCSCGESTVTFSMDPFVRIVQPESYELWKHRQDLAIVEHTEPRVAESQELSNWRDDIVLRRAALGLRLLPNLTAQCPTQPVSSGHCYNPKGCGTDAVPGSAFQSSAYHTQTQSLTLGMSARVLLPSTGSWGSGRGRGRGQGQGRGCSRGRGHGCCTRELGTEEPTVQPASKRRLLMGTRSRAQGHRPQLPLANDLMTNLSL
Assay: qHTS Assay for Inhibitors of Human Jumonji Domain Containing 2E (JMJD2E)
Conditions: JMJD2E catalytic domain, FDH-coupled NADH fluorescence (FDH is formaldehyde dehydrogenase); series mostly up to 57.1 µM
Further: nearly all actives have a fitted effect of over 50% in size.
Potency means the concentration at half of the fitted maximal effect; tags describe the fitted curve by direction and shape.

With `COC(=O)c1cn(C(=O)c2ccc(C)cc2)c2ccccc12` as the compound, how does the Potency read?
The Potency was inconclusive: 39.8 µM [inhibitor, single point].

With `COc1cc2c(cc1OC)C(=S)NC1(CCCC1)C2` as the compound, how does the Potency read?
The Potency was “inactive”.

Which Potency does the source give for `Nc1nonc1C(=O)N/N=C/c1ccc(-c2ccc(Cl)c(C(=O)O)c2)o1` here?
Its Potency is inconclusive: 10 µM [inhibitor, partial curve].

Which Potency does the source give for `COC(=O)c1ccc(NC(=S)N2CCN(Cc3ccccc3OC)CC2)cc1` here?
The Potency was “inactive”.

For `CC(=O)c1cc(CN2CCN(CCc3ccccc3)C(CCO)C2)cs1` (stereo not drawn), which Potency is on record?
The Potency was inconclusive: 44.7 µM [inhibitor, partial curve, poor fit].

Which Potency does the source give for `CC1(C)CC(=O)C(C=Nc2ccccc2Sc2ccccc2)=C(O)C1` here?
Its Potency is inconclusive: 35.5 µM [inhibitor, single point].

Which Potency does the source give for `Cc1ccc(Cl)cc1NC(=O)COC(=O)c1ccc(N2CCCC2)c([N+](=O)[O-])c1` here?
Its Potency is “inactive”.

With `O=C(Nc1ccc(-c2nc3ccccc3[nH]2)cc1)c1ccco1` as the compound, how does the Potency read?
Its Potency is inconclusive: 35.5 µM [inhibitor, single point].

With `Cc1ccc2c(c1)-c1ncc(C(=O)c3cc(Br)ccc3O)cc1CO2` as the compound, how does the Potency read?
Its Potency is inconclusive: 10 µM [inhibitor, partial curve].

How did the Potency turn out when `COC(=O)CSc1ccc(S(=O)(=O)N2CCC(C)CC2)cc1[N+](=O)[O-]` was run?
Its Potency is “inactive”.

With `COc1ccc(-c2c([C@H]3[C@H]4C=CC[C@@H](C)[C@@H]4C(=O)N3Cc3ccccc3)ccc3ccccc23)cc1OC` as the compound, how does the Potency read?
The Potency was inconclusive: 39.8 µM [inhibitor, single point].

How did the Potency turn out when `Cc1nn(C)c2ncc(C(=O)c3cc(F)ccc3O)cc12` was run?
Its Potency is “inactive”.

For `COc1ccc(Br)cc1CN1CCN(C(=O)c2cccc(OC)c2OC)CC1`, which Potency is on record?
Its Potency is inconclusive: 31.6 µM [inhibitor, single point].

For `CCOc1ccccc1-c1nc(C(N)=O)c2[nH]c(=O)n(-c3ccccc3)c2n1`, which Potency is on record?
The Potency was inconclusive: 39.8 µM [inhibitor, single point].

With `Cc1ccc(C(=O)O)cc1NC(=O)Nc1ccc2c(c1)OCO2` as the compound, how does the Potency read?
The Potency was inconclusive: 39.8 µM [inhibitor, single point].

`Cc1cccn2c(CNCCCOc3cccnc3)c(C(=O)N3CCOCC3)nc12` was tested. Which Potency did it give?
The Potency was inconclusive: 39.8 µM [inhibitor, partial curve, poor fit].

For `COc1ccc(-c2cnc(N)nc2-c2ccc(OC)cc2O)cc1`, which Potency is on record?
Its Potency is “inactive”.

`CCOc1ccc(C(=O)N2CCCC2)cc1` was tested. Which Potency did it give?
Its Potency is inconclusive: 28.2 µM [inhibitor, single point].

How did the Potency turn out when `Cc1cc(/C=C(\C#N)C(=O)Nc2ccccc2F)c(C)[nH]1` was run?
Its Potency is inconclusive: 25.1 µM [inhibitor, partial curve].

With `Cc1ccc(-c2c(C#N)c(N)nc3c2CCCC3)o1` as the compound, how does the Potency read?
The Potency was inconclusive: 35.5 µM [inhibitor, single point].

Which Potency does the source give for `O=C(NC(NC(=S)Nc1cccc(C(=O)O)c1)C(Cl)(Cl)Cl)OCc1ccccc1` (stereo not drawn) here?
The Potency was inconclusive: 39.8 µM [inhibitor, single point].

How did the Potency turn out when `CC(=O)Oc1ccc2c(c1)CCC1C2CC[C@@]2(C)C1CC(OC(C)=O)C2OC(C)=O` (stereo partly drawn) was run?
The Potency was “inactive”.

How did the Potency turn out when `c1cn(-c2ncnc3sc4c(c23)CCCC4)cn1` was run?
The Potency was inconclusive: 39.8 µM [inhibitor, single point].

`Cc1[nH][nH]c(=O)c1C(c1ccc(-c2ccc(Cl)cc2)o1)c1c(C)[nH][nH]c1=O` was tested. Which Potency did it give?
Its Potency is inconclusive: 3.16 µM [inhibitor, single point].

How did the Potency turn out when `COC(=O)/C=C1\S/C(=N/N=C/c2ccccc2)NC1=O` was run?
Its Potency is “inactive”.

`COc1cc(/C=C2/NC(=O)N(Cc3ccccc3F)C2=O)cc(OC)c1OC` was tested. Which Potency did it give?
The Potency was “inactive”.

With `CCOC(=O)C1C(=O)CC(C)(O)C(C(=O)OCC)C1/C=C/c1ccccc1` (stereo not drawn) as the compound, how does the Potency read?
The Potency was inconclusive: 35.5 µM [inhibitor, single point].

Which Potency does the source give for `COc1cc(SC)ccc1C(=O)Nc1ccon1` here?
The Potency was “inactive”.

With `N#CC(C#N)=c1ccc2c(c1)NC1(CCCCC1)N=2` as the compound, how does the Potency read?
The Potency was “inactive”.

How did the Potency turn out when `CC(C)NC[C@@H](O)COc1cccc2ccccc12` was run?
Its Potency is “inactive”.

How did the Potency turn out when `O=c1c2[nH]c3ccc(F)cc3c2ncn1C1CCCCC1` was run?
The Potency was inconclusive: 20 µM [inhibitor, single point].

`COC(=O)c1ccc(C(NC(=O)OCc2ccccc2)/C(=C/[C@@H](C)C(=O)NCC2CC2)c2cccnc2)cc1` (stereo partly drawn) was tested. Which Potency did it give?
The Potency was “inactive”.

`O=C1CCC(c2ccccc2)N1C(=O)c1cccnc1` (stereo not drawn) was tested. Which Potency did it give?
The Potency was “inactive”.

`O=C(N/N=C/c1cccc2ccccc12)c1n[nH]c2c1CCCC2` was tested. Which Potency did it give?
Its Potency is inconclusive: 14.1 µM [inhibitor, partial curve].

With `CC1(C)Cc2c(C#N)c(NCc3ccco3)nc(-c3ccco3)c2CO1` as the compound, how does the Potency read?
Its Potency is inconclusive: 7.94 µM [inhibitor, partial curve].

`Cc1[nH]c2ccccc2c1C(=O)C(=O)N1CCN(C(=O)c2ccco2)CC1` was tested. Which Potency did it give?
Its Potency is inconclusive: 5.01 µM [inhibitor, single point].

With `CCOC(=O)C1=NN(c2ccc(Cl)cc2)C(=O)C1` as the compound, how does the Potency read?
The Potency was inconclusive: 22.4 µM [inhibitor, partial curve].

`Cn1c(-c2sc3ccccc3c2Cl)n[nH]c1=S` was tested. Which Potency did it give?
The Potency was inconclusive: 25.1 µM [inhibitor, single point].

For `Cc1[nH]nc2nc(SCC(=O)NCC3CCCO3)n(-c3ccc(Br)cc3)c(=N)c12` (stereo not drawn), which Potency is on record?
The Potency was “inactive”.

With `CC(C)(C)C(=O)Nc1sc(-c2ccccc2)cc1C(=O)O` as the compound, how does the Potency read?
The Potency was inconclusive: 31.6 µM [inhibitor, single point].

For `O=C(c1cc2cc([N+](=O)[O-])ccc2oc1=O)N1CCN(c2ncccn2)CC1`, which Potency is on record?
Its Potency is “inactive”.

How did the Potency turn out when `CCc1c(C)c(C#N)c2nc3ccccc3n2c1NCCN(C)C` was run?
The Potency was inconclusive: 35.5 µM [inhibitor, single point].

With `CN(C(=O)c1cc2ccccc2oc1=O)C1(C)CCS(=O)(=O)C1` (stereo not drawn) as the compound, how does the Potency read?
Its Potency is inconclusive: 39.8 µM [inhibitor, single point].

For `CCN(CC)S(=O)(=O)c1ccc(S(=O)(=O)Nc2ccc3c(c2)oc2ccccc23)cc1`, which Potency is on record?
Its Potency is “inactive”.

`CCOc1ccc(N/C(=C(/C(Cl)=C(Cl)Cl)[N+](=O)[O-])n2cncn2)cc1` was tested. Which Potency did it give?
The Potency was inconclusive: 35.5 µM [inhibitor, single point].

Which Potency does the source give for `Cc1ccc(/C=N/NC(=O)c2cccs2)s1` here?
The Potency was inconclusive: 35.5 µM [inhibitor, single point].

With `COc1ccc(/C=N/N2CCN(C)CC2)cc1O` as the compound, how does the Potency read?
Its Potency is inconclusive: 28.2 µM [inhibitor, single point].

`O=C(CSc1ccc(Cl)cc1)Nc1cccc(-c2nc3ccccc3[nH]2)c1` was tested. Which Potency did it give?
Its Potency is inconclusive: 22.4 µM [inhibitor, partial curve].

With `O=C(Nc1ccc2oc(-c3ccc(Cl)c(Cl)c3)nc2c1)c1ncn[nH]1` as the compound, how does the Potency read?
The Potency was inconclusive: 8.91 µM [inhibitor, single point].

How did the Potency turn out when `COc1ccc(-c2noc(COc3ccc4c(c3)OCO4)n2)cc1` was run?
Its Potency is “inactive”.

Which Potency does the source give for `COc1cc(/C=C(\C#N)C(=O)NCc2cccs2)ccc1O` here?
Its Potency is “inactive”.

`NC(N)=NCC(O)CN(c1ccccc1)c1ccccc1` (stereo not drawn) was tested. Which Potency did it give?
The Potency was “inactive”.

For `CCOC(=O)COc1cc(OCC(=O)OCC)c2c(=O)cc(-c3ccccc3)oc2c1`, which Potency is on record?
Its Potency is inconclusive: 22.4 µM [inhibitor, partial curve].

How did the Potency turn out when `CN(C)c1ccc(NC(=O)c2ccc3nsnc3c2)cc1` was run?
The Potency was “inactive”.

With `CCOC(=O)c1c(-c2cccc(N)c2)cn2ccccc12` as the compound, how does the Potency read?
Its Potency is inconclusive: 14.1 µM [inhibitor, partial curve].

With `O=C(CN1C(=O)C2C3C=CC(C4CC34)C2C1=O)OCC(=O)c1ccccc1` (stereo not drawn) as the compound, how does the Potency read?
Its Potency is “inactive”.

`O=C(/C=C/c1ccc2c(c1)OCO2)Nc1cccnc1` was tested. Which Potency did it give?
Its Potency is inconclusive: 31.6 µM [inhibitor, partial curve].

With `Cc1sc(NC(=O)c2ccco2)c(C(c2ccc(F)cc2)N2CCN(C)CC2)c1C` (stereo not drawn) as the compound, how does the Potency read?
The Potency was “inactive”.

With `CC(=O)Nc1ccc(S(=O)(=O)/N=C2\C(=O)c3ccccc3C([O-])=C2n2cc[n+](-c3ccccn3)c2)cc1` as the compound, how does the Potency read?
The Potency was “inactive”.

`C=CCNc1cnn(-c2ccc(C)cc2)c(=O)c1Sc1ccc(C)cc1` was tested. Which Potency did it give?
The Potency was inconclusive: 39.8 µM [inhibitor, single point].

How did the Potency turn out when `O=C(CCNc1ccc(Cl)c(C(F)(F)F)c1)c1ccco1` was run?
Its Potency is “inactive”.

For `CCCCCCN(C(=O)CCCCCN1C(=O)NC(c2ccccc2-c2ccccc2)C(C(=O)OCc2ccccc2)=C1C)C(C(=O)NCCCC)c1ccc(OCC(=O)OC)c(C(=O)OC)c1` (stereo not drawn), which Potency is on record?
Its Potency is “inactive”.

Which Potency does the source give for `CC(=O)N1CCC(N(CCN2CCOCC2)C(=S)Nc2cc(C)cc(C)c2)CC1` here?
The Potency was inconclusive: 8.91 µM [inhibitor, single point].

`COc1ccc2c(c1OC)C(=O)OC2Nc1nc(-c2cc3ccccc3oc2=O)cs1` (stereo not drawn) was tested. Which Potency did it give?
The Potency was inconclusive: 22.4 µM [inhibitor, partial curve].

How did the Potency turn out when `COc1cc(NC(=O)CCCc2c[nH]c3ccccc23)cc(OC)c1` was run?
The Potency was inconclusive: 31.6 µM [inhibitor, single point].

How did the Potency turn out when `Cc1ccc(CNC(=O)CCS(=O)(=O)c2ccc(Cl)cc2)cc1` was run?
Its Potency is “inactive”.

With `N#CCCn1cc(/C=C/C(=O)O)c(-c2ccc(F)cc2)n1` as the compound, how does the Potency read?
The Potency was “inactive”.

`S=C(NCCc1ccccc1)N1CCN(Cc2ccccc2)CC1` was tested. Which Potency did it give?
The Potency was inconclusive: 28.2 µM [inhibitor, single point].

How did the Potency turn out when `CCn1c(N)c(C(=O)NCCCOC)sc1=S` was run?
The Potency was inconclusive: 39.8 µM [inhibitor, single point].

With `O=C(O)Cc1ccc(NC(=S)NCc2ccco2)cc1` as the compound, how does the Potency read?
Its Potency is “inactive”.

For `CC(N)=Nc1ccc([N+](=O)[O-])cc1`, which Potency is on record?
The Potency was “inactive”.

`Cc1nc2ccc3nc(NC(=O)c4ccc5c(c4)OCCO5)sc3c2s1` was tested. Which Potency did it give?
Its Potency is inconclusive: 20 µM [inhibitor, partial curve].

Which Potency does the source give for `Cc1cc(C)n(-c2nc(NCCO)c3c4c(sc3n2)CCCC4)n1` here?
Its Potency is inconclusive: 39.8 µM [inhibitor, single point].
